Data published in article PMC4336329 (PLoS ONE, 2015).
Hit rate of the full screen: of about 310,000 compounds, about 14,000 (4.5%) showed an effect of 50% or more. The effect is printed as a negative number. The list shows a part of the results.

target: human ether-à-go-go-related gene (hERG) potassium channel (human, UniProt Q12809); assay: primary screen, population patch clamp on CHO cells stably expressing hERG
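Also: peak tail current of the secondary pulse compared with the same well before compound.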

human ether-à-go-go-related gene (hERG) potassium channel, sequence (Q12809 whole entry, looked up): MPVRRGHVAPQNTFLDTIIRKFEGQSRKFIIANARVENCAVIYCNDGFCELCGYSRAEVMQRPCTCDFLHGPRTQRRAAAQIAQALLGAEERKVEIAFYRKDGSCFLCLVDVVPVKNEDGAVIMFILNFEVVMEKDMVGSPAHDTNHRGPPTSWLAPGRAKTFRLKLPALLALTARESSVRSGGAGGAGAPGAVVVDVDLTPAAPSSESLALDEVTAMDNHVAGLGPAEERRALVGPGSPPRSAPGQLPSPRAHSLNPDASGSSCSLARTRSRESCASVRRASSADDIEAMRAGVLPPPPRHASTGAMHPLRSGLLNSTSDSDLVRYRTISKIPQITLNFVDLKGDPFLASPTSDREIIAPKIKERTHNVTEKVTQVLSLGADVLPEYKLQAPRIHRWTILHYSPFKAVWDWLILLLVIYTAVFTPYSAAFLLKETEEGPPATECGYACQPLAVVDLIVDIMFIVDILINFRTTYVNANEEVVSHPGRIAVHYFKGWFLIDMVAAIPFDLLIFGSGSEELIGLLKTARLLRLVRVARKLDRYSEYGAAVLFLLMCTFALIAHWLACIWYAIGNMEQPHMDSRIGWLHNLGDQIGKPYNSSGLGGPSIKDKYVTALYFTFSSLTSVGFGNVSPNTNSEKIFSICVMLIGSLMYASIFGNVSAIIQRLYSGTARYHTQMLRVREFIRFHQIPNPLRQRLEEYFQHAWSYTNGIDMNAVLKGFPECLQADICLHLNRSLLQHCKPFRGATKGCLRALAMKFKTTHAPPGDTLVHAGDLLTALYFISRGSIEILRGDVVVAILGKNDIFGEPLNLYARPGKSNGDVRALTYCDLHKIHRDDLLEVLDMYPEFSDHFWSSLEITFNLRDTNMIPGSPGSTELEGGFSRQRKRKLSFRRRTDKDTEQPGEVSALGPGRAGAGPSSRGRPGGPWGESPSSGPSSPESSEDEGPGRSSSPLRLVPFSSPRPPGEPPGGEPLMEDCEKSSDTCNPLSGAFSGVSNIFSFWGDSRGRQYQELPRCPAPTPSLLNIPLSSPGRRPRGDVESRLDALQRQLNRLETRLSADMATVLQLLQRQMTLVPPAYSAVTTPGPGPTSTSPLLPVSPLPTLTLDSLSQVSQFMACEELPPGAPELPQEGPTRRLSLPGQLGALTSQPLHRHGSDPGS

| SMILES | hERG current change (%, negative = inhibition) at 10uM [%] |
| --- | --- |
| O=C(CN1C(=O)CSC1=O)Nc1ccccc1N1CCOCC1 | 22.1 |
| CC1(c2ccccc2)NC(=O)N(CC(=O)Nc2nc(-c3ccccn3)cs2)C1=O (centres unmarked) | 0.219 |
| COc1ccc(N=Cc2oc3ccc4ccccc4c3c2O)cc1 | 18.3 |
| Cc1ccc(NC(=O)CSc2ncc(-c3ccccc3)n2C(=O)c2ccccc2)cc1 | 3.93 |
| CN(C1CCCC1)C1CCN(C(=O)CNC(=O)/C=C/c2ccccc2)CC1 | -53.8 |
| Cc1c(NC(=S)NC(=O)Cc2ccccc2)cccc1C(=O)O | -11.8 |
| COc1ccc(-c2nnc(SCC(=O)c3ccco3)n2-c2ccccc2)cc1 | 3.04 |
| COc1ccc(CCN(C)C(=O)c2cc(-c3ccccc3)nc3ccccc23)cc1OC | -4.79 |
| Cc1ccc(NC(=O)c2ccc(NCC3CCCO3)c([N+](=O)[O-])c2)cc1Cl (centres unmarked) | 3.63 |
| CCOC(=O)N1CCN(C(=O)CNC(=O)c2ccc(Br)o2)CC1 | 11.7 |
| CCCN(CC(=O)Nc1ccccc1C)C(=O)COc1ccc2c(c1)CCC2 | 12.5 |
| CCCCCc1cc(=O)oc2c(C(CCN3CCCC(C)C3)c3ccc(OC)cc3)c(OC)cc(OC)c12 (centres unmarked) | -27.8 |
| Cc1cc(Cl)ccc1NC(=O)CSc1nnc(Cc2cccs2)n1Cc1ccco1 | -45.3 |
| COc1cccc(CNC(=O)CN2C(=O)COc3ccc(S(=O)(=O)N4CCCC4)cc32)c1 | -19.8 |
| Cc1ccc(-n2cccc2C(=S)N=P(N(C)C)(N(C)C)N(C)C)cc1 | 6.86 |
| CCOc1ccccc1Oc1c(C)oc2cc(OC(=O)N3CCOCC3)ccc2c1=O | 4.41 |
| CC1CC(C)CN(C(=O)CCCn2c(=O)c3cccn3c3cccnc32)C1 (centres unmarked) | -11 |
| COc1cc(OC)cc(C(C)=O)c1 | 18.6 |
| O=C(NCc1ccco1)c1scc2c1OCCO2 | -1.28 |
| CCOC(=O)c1ccc(N2C(=O)CC(N3CCC(Nc4ccc(F)cc4)CC3)C2=O)cc1 (centres unmarked) | 8.31 |
| COc1ccc(CN(C)CC2CCCN(CCc3ccccc3C)C2)cc1O (centres unmarked) | -53.8 |
| O=C(COc1ccc(Cl)cc1Cl)N1CCCC1 | -1.44 |

| SMILES | hERG current change (%, negative = inhibition) at 10uM [%] |
| --- | --- |
| COc1cccc(NC(=O)CN(C)C(=O)COc2ccccc2Cc2ccccc2)c1 | -7.84 |
| Cc1c(CNCCC2=CCCCC2)c(C(=O)O)c(C)n1Cc1ccccc1 | -13.3 |
| COc1ccc2c(c1OC)C(=O)N1c3cccc(Cl)c3C(=O)OC21 (centres unmarked) | -2.79 |
| Cc1ccc2c(CSc3nnc(C4CC4)n3N)cc(=O)oc2c1C | -7.55 |
| CCn1nnnc1Oc1ccc(Cl)cc1 | 2.38 |
| COCC(=O)Nc1ccc(N2CCCC2)c(S(=O)(=O)Nc2ccccc2OC)c1 | -22.1 |
| CCn1c(=NC(=O)c2cccc(N3C(=O)CCC3=O)c2)sc2c(OC)ccc(OC)c21 | 12.5 |
| Cl.Cn1c(=N)n(CC(O)c2ccccc2)c2ccccc21 (centres unmarked) | -26.3 |
| Cc1cccc(N2CCN(S(=O)(=O)c3c(C)nc4scc(C)n4c3=O)CC2)c1C | -3.51 |
| CCOc1ccccc1N1CC(C(=O)Nc2ccccc2N2CCCC2)CC1=O (centres unmarked) | 16.8 |
| Cc1ccc(CNC(=O)c2ccc3c(=O)[nH]c4c(C(=O)NCC5CCCO5)sc(=S)n4c3c2)cc1 (centres unmarked) | -32 |
| COc1ccc(C(=O)N2CCNC(=O)C2)cc1S(=O)(=O)Nc1ccc(Br)cc1 | 1.15 |
| C=C(CC1CC(O)[C@]2(C)OC3CC4OC5C[C@]6(C)O[C@]7(C)CCC8OC9C[C@]%10(C)OC%11C(C)=CC(=O)OC%11CC%10OC9C[C@@H](C)C8OC7CC6O[C@]5(C)C/C=C\C4OC3CC2O1)C(=O)O (some centres unmarked) | 0.53 |
| COc1cc(NC(=S)N2CCCC(C)C2)c(OC)cc1Cl (centres unmarked) | 33.4 |
| CCc1ccc(NS(=O)(=O)c2ccc3[nH]cc(C(=O)N(C)Cc4ccco4)c(=O)c3c2)cc1 | 0.0432 |
| Cl.Ic1ccc(N2CCN(Cc3c[nH]c4ncccc34)CC2)cc1 | -2.49 |
| O=C(Cn1cc(C(F)(F)F)ccc1=O)N/N=C/c1cccc(Cl)c1Cl | -4.01 |
| C=CCN(CC=C)c1nc2ccccc2nc1C(C#N)C(=O)OCCOC (centres unmarked) | -29.8 |
| COc1ccc(NC(=S)N2CCC(c3ccc(C)cc3)C2)cc1 (centres unmarked) | -1.56 |
| COc1cccc(C(=O)NC(C)C(c2cccs2)N2CCN(C)CC2)c1 (centres unmarked) | -10.8 |
| Clc1cccc(-c2nnc(-c3ccno3)o2)c1 | 1.4 |
| CCOc1ccccc1NC(=O)NCc1ccccc1F | 13.1 |

| SMILES | hERG current change (%, negative = inhibition) at 10uM [%] |
| --- | --- |
| C=CCn1c(SCC(=O)NC(=O)NCC(C)C)nnc1C1CCCCC1 | 2.18 |
| COc1cccc(N2C(=O)C3C(C2=O)C3(c2ccccc2)c2ccccc2)c1 (centres unmarked) | -3.19 |
| Cc1cc(NC(=O)CC23CC4CC(C2)CC(CC(=O)Nc2cc(C)on2)(C4)C3)no1 | 3.02 |
| CCOC(=O)N1CCC(NC(=O)c2ccc(NC(=O)C3CCCO3)cc2)CC1 (centres unmarked) | 0.264 |
| CCC(C)(C)NC(=O)C(c1ccc(OC)cc1)N(Cc1ccco1)C(=O)CCC(=O)Nc1cc(C)on1 (centres unmarked) | -2.21 |
| COc1ccc(Nc2nc(Cl)c(C=O)s2)cc1 | 17.1 |
| CC(C)=NOc1nc(N2CCOCC2)nc(N2CCOCC2)n1 | 8.33 |
| O=C(O)C1CCN(S(=O)(=O)c2cccc3nsnc23)CC1 | 6.45 |
| O=C(NN=C1CCCCC1)c1ccccc1-n1cccc1 | -5.82 |
| CC(=O)c1cccc(Nc2c([N+](=O)[O-])c(=O)oc3ccccc23)c1 | 12.6 |
| CC(NC(=O)Cc1ccccc1)c1ccccc1 (centres unmarked) | 3.47 |
| O=C(CSc1nnc(-c2cccs2)o1)NCc1ccco1 | -0.74 |
| CCOc1cccc(-c2nnc(SCC(=O)Nc3ccc(OC)c(OC)c3)n2N)c1 | -3.31 |
| Cn1c(=O)c2c(nc(CN3CCN(c4ccccc4F)CC3)n2CCN2CCOCC2)n(C)c1=O | -10.9 |
| CCOC(=O)CC1COc2ccccc2N1C(=O)c1ccc(F)cc1 (centres unmarked) | -3.15 |
| CCn1cc(/C=C(\NC(=O)c2ccc(OC)cc2)C(=O)N2CCOCC2)c2ccccc21 | -3.42 |
| COc1ccc(/C=C(/NC(=O)c2ccco2)C(=O)N2CCCCCC2)cc1OC | -7.39 |
| CC1(C(=O)OCC(=O)Nc2nc(-c3ccc(F)c(F)c3)cs2)CC1(Cl)Cl (centres unmarked) | 2.47 |
| COc1ccc(CCNC(=O)CN(c2ccc(OC)cc2)S(C)(=O)=O)cc1 | 37.3 |
| Cc1ccc2nc(SCC(=O)N3CCCC3)nc(=O)n2c1 | -0.651 |
| Cc1cc(C)c(S(=O)(=O)Nc2ccccc2-c2ccccc2)c(C)c1 | 6.6 |
| COc1ccc2c(c1)c1ccccc1n2C | 11 |

| SMILES | hERG current change (%, negative = inhibition) at 10uM [%] |
| --- | --- |
| Cc1ncc(CN2CCC(CO)(CCOc3ccccc3)CC2)s1 | -70.1 |
| O=C(CCc1nc2sc3c(c2c(=O)[nH]1)CCCC3)NCCc1ccc(F)cc1 | 3.25 |
| C=CCn1c(=O)c2c(nc3n2CCN3c2cccc(Cl)c2C)n(C)c1=O | -15 |
| O=C(CSc1ccc2ccccc2n1)c1ccc2c(c1)OCO2 | -11.6 |
| COc1ccccc1CNC(=O)C1CCCN(S(=O)(=O)c2cnc[nH]2)C1 (centres unmarked) | 1.48 |
| CCC/C(O)=C1\C(=O)CC(C)(C)CC1=Nc1ccc(OC)cc1 | -8.55 |
| COc1ccc(-n2c(SCC(=O)NCC3CCCO3)nc3ccccc32)cc1 (centres unmarked) | -17.7 |
| O=C(CCn1c(=O)oc2ccc(Cl)cc21)N1CCN(Cc2ccccc2)CC1 | -35.8 |
| Cc1ccc(C(=O)NC(=O)OCCn2c(C)cnc2[N+](=O)[O-])cc1 | 4.69 |
| Cc1cc(C)n(-c2ccnc3cc(Cl)ccc23)n1 | 13.4 |
| COc1ccc(CN(C#N)c2nc(C)cc(C)n2)cc1 | 14.1 |
| NS(=O)(=O)c1cc(C(=O)OCCNC(=O)c2ccccc2)c(Cl)cc1Cl | -2.33 |
| CC(C)(C)c1ccccc1NC(=O)NC1CCN(Cc2c(F)cccc2Cl)CC1 | 6.82 |
| COc1ccccc1C(=O)Oc1ccc(C(C)(C)C)cc1 | -6.17 |
| CC12CCC(C(=O)NCc3ccccc3Cl)(OC1=O)C2(C)C (centres unmarked) | -6.52 |
| O=C1C2C(c3ccccc3)C=CC(c3ccccc3)C2C(=O)N1c1ccncc1 (centres unmarked) | 6.13 |
| COc1ccc(-c2csc(NC(=O)Cc3ccccc3F)n2)c(OC)c1 | 28.2 |
| CC(=O)[C@H]1[C@H](c2cccc(Cl)c2)C(C#N)(C#N)[C@@H]2c3ccccc3C=CN21 | 12.8 |
| O=C(Cc1ccc(Cl)cc1)Nc1ccccn1 | 12.4 |
| COc1ccc(CC2(CO)CCN(Cc3cccc4nccnc34)CC2)cc1 | -70.9 |
